From the supplement of paper PMC10441789
The other results are listed elsewhere or left out. Antibody binding of pooled human sera (four to six donors per pool; dilution not stated) to peptides of the Trypanosoma cruzi antigen TSSA on microarrays. Quantile-normalised fluorescence in arbitrary units, mean of duplicate arrays; higher = more binding. No active / inactive call. The uninfected pools are read here as the healthy donors of the same country. The strongest signals lie near the top of the scale (about 60,000).

Legend:
Test in all cases: antibody binding signal (normalised fluorescence) (arbitrary fluorescence units); higher = stronger serum antibody binding to peptide
[1] = system: pooled sera of chronic Chagas disease patients, Bolivia
Description: (§1)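 Microarray of 15-residue peptides over residues 30-55 of Trypanosoma cruzi TSSAII, each with 1 to 10 substitutions at naturally variable positions, probed with one serum pool per country.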

[2] = system: pooled sera of chronic Chagas disease patients, Brazil
Description: as §1

[3] = system: pooled sera of chronic Chagas disease patients, Colombia
Description: as §1

[4] = system: pooled sera of chronic Chagas disease patients, Mexico
Description: as §1

[5] = system: pooled sera of chronic Chagas disease patients, USA
Description: as §1

[6] = system: pooled sera of uninfected people, Argentina
Description: as §1

[7] = system: pooled sera of uninfected people, Bolivia
Description: as §1

[8] = system: pooled sera of uninfected people, Brazil
Description: as §1

[9] = system: pooled sera of uninfected people, Colombia
Description: as §1

[10] = system: pooled sera of uninfected people, Mexico
Description: as §1

[11] = system: pooled sera of uninfected people, USA
Description: as §1

Row | Sequence | antibody binding signal [1] | antibody binding signal [2] | antibody binding signal [3] | antibody binding signal [4] | antibody binding signal [5] | antibody binding signal [6] | antibody binding signal [7] | antibody binding signal [8] | antibody binding signal [9] | antibody binding signal [10] | antibody binding signal [11]
1 | TENKPAAGGTPSPPG | 752 | 1700 | 1090 | 648 | 304 | 248 | 452 | 683 | 541 | 214 | 238
2 | PPSGKENKPAAGETP | 30800 | 6490 | 876 | 2470 | 13200 | 3970 | 3560 | 304 | 1040 | 339 | 657
3 | TEKKTATGGTPSPSG | 838 | 785 | 6050 | 816 | 1910 | 299 | 209 | 420 | 1070 | 263 | 284
4 | SGKDKKAAAGETPSQ | 240 | 746 | 1180 | 970 | 1520 | 117 | 79.2 | 90.7 | 318 | 78.1 | 78.8
5 | PSGTENKPAAGEAPS | 40000 | 46300 | 1420 | 3990 | 21600 | 1540 | 1680 | 403 | 338 | 542 | 512
6 | SGTDKKAATGGAPSQ | 396 | 3560 | 5750 | 1820 | 1460 | 358 | 564 | 202 | 722 | 634 | 207
7 | SGKDKKPATGEAPSP | 14200 | 43100 | 727 | 708 | 32400 | 922 | 349 | 123 | 738 | 104 | 144
8 | TPPSGKDNKAATGET | 2740 | 2710 | 291 | 25800 | 4120 | 207 | 700 | 194 | 331 | 122 | 106
9 | KDKKAATGETPSPPG | 258 | 6580 | 120 | 277 | 6030 | 325 | 93 | 96.6 | 216 | 72.5 | 558
10 | PSGKDKKAATGETPS | 722 | 3510 | 2050 | 2140 | 9020 | 340 | 282 | 153 | 258 | 88.4 | 131
11 | KDKKPATGETPSPSG | 6490 | 18200 | 126 | 132 | 17000 | 130 | 200 | 115 | 112 | 897 | 998
12 | TDNKTATGGTPSQPG | 1010 | 797 | 1960 | 330 | 726 | 587 | 367 | 668 | 273 | 1500 | 155
13 | ENKAATGETPSPSGA | 5680 | 20900 | 261 | 183 | 14400 | 207 | 238 | 122 | 118 | 141 | 985
14 | GTEKKAAAGGAPSQS | 184 | 162 | 3860 | 570 | 534 | 140 | 358 | 251 | 92.7 | 86.3 | 117
15 | GTDNKPATGGTPSPS | 852 | 42200 | 1650 | 672 | 522 | 190 | 938 | 612 | 619 | 452 | 160
16 | TDKKPAAGGTPSQPG | 201 | 772 | 6030 | 262 | 926 | 165 | 838 | 1690 | 269 | 359 | 213
17 | KENKTATGEAPSQPG | 21800 | 41800 | 697 | 475 | 20700 | 213 | 119 | 247 | 142 | 184 | 135
18 | GTEKKAATGGTPSPP | 437 | 486 | 2370 | 1720 | 1710 | 260 | 591 | 585 | 1210 | 110 | 173

Row | Sequence | antibody binding signal [1] | antibody binding signal [2] | antibody binding signal [3] | antibody binding signal [4] | antibody binding signal [5] | antibody binding signal [6] | antibody binding signal [7] | antibody binding signal [8] | antibody binding signal [9] | antibody binding signal [10] | antibody binding signal [11]
19 | GKDNKTAAGGAPSQP | 194 | 583 | 2810 | 585 | 571 | 145 | 100 | 110 | 191 | 100 | 95.6
20 | TEKKAATGGAPSQSG | 379 | 1060 | 1530 | 2360 | 2930 | 406 | 804 | 138 | 1090 | 366 | 483
21 | TEKKTAAGGAPSPPG | 442 | 295 | 10800 | 1150 | 1890 | 212 | 174 | 241 | 561 | 348 | 243
22 | TENKPAAGEAPSQPG | 26000 | 44100 | 332 | 487 | 16600 | 189 | 330 | 223 | 78.6 | 110 | 151
23 | TISTPPSGKENKPAT | 23300 | 23300 | 607 | 7300 | 12500 | 3400 | 1710 | 355 | 617 | 243 | 787
24 | SGKDNKAAAGEAPSQ | 7530 | 19500 | 1780 | 1240 | 7950 | 258 | 311 | 117 | 560 | 91.7 | 115
25 | PSGKDNKPAAGGTPS | 540 | 4210 | 6350 | 5270 | 5420 | 1010 | 684 | 261 | 188 | 159 | 142
26 | TDNKPAAGEAPSPPG | 1150 | 32000 | 406 | 153 | 17700 | 95.7 | 327 | 258 | 105 | 267 | 78.3
27 | STPPSGKDNKAATGG | 4530 | 8480 | 478 | 36300 | 3270 | 298 | 496 | 136 | 154 | 102 | 155
28 | GKEKKAAAGGTPSPP | 193 | 256 | 1780 | 1100 | 1970 | 110 | 83.7 | 452 | 106 | 86.1 | 114
29 | GTEKKTAAGETPSPP | 266 | 354 | 630 | 876 | 3890 | 143 | 599 | 160 | 779 | 193 | 377
30 | TDNKAATGGAPSQPG | 1790 | 23600 | 564 | 441 | 1230 | 289 | 344 | 309 | 200 | 187 | 154
31 | PPSGKDNKPATGGTP | 531 | 19600 | 502 | 6720 | 11200 | 491 | 1070 | 218 | 272 | 177 | 256
32 | GKDNKTATGGAPSPS | 268 | 1430 | 4820 | 4660 | 2780 | 253 | 138 | 117 | 162 | 109 | 122
33 | GKDNKTATGGTPSPS | 303 | 488 | 2400 | 1460 | 1540 | 194 | 128 | 124 | 204 | 77.2 | 133
34 | TSSTPPSGTDNKPAA | 45400 | 51600 | 4890 | 11400 | 30700 | 2870 | 832 | 817 | 418 | 901 | 920
35 | PSGTENKAAAGGAPS | 23800 | 44900 | 7300 | 6890 | 11200 | 1280 | 757 | 503 | 507 | 662 | 406
36 | PPSGKEKKAAAGGTP | 244 | 2120 | 3330 | 4090 | 3560 | 318 | 191 | 474 | 207 | 81.7 | 106
